# Measured values as given in the supplement of paper PMC4166925.
# ± gives the standard deviation of the averaged measurements. Whole data set: some 33,000 sequences, median “E-score (dimensionless, -0.5 to 0.5)” near -0.046, cut for the highest 2% near 0.36. Some of the results follow.
# System: T1, SpTbr T-box DNA-binding domain (GST fusion)
# T1 sequence: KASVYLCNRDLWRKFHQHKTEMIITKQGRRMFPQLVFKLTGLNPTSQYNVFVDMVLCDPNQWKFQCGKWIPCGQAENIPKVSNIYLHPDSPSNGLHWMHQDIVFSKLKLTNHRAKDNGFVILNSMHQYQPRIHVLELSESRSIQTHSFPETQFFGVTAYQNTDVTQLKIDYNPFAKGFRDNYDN
# Test: PBM E-score of 8-mer (E-score (dimensionless, -0.5 to 0.5)); Tbr is Tbrain of the sea star Patiria miniata (Pm) or the sea urchin Strongylocentrotus purpuratus (Sp); higher = stronger binding preference; most listed sequences are background and not binding sites
# Settings: the construct has about 5 more residues each side
# Procedure, shortened: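 Each ungapped 8-mer received an enrichment E-score from the Universal PBM Analysis Suite, averaged over duplicate arrays. The proteins were Tbr T-box DNA-binding domains, covering the whole T-box plus about five flanking residues, fused to GST and expressed in BL21 E. coli at 20 °C before glutathione affinity purification. Universal Agilent oligonucleotide arrays were made double-stranded by primer extension and incubated with 200 nM protein in PBS (pH 7.5). The arrays were then scanned and quantified, and every 8-mer was scored from probe intensities.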
row,Sequence,PBM E-score of 8-mer
1,AAGAATGG,-0.127 ± 0.0028
2,CGATCGTA,0.0554 ± 0.032
3,GCAGCCAC,0.126 ± 0.026
4,ATACTCCA,-0.0846 ± 0.1
5,CCCGGTTA,-0.122 ± 0.056
6,ACCCTGTG,0.211 ± 0.031
7,CGAACTCA,0.0559 ± 0.063
8,CAATCTCA,0.128 ± 0.014
9,CGGCCGCA,0.0778 ± 0.042
10,AAACCAGT,-0.222 ± 0.049
11,AACTCCAT,0.0047 ± 0.023
12,GCGGTTCC,-0.0655 ± 0.06
13,AAACGCGT,0.0675 ± 0.0019
14,ACGGAATC,-0.021 ± 0.073
15,AAAAGTCG,0.0781 ± 0.0043
16,GTGATTAA,0.221 ± 0.008
17,GATTCTAC,-0.259 ± 0.035
18,GCACGACA,0.0383 ± 0.017
19,TCGAGAGA,-0.0261 ± 0.078
20,CCTTAACC,-0.0815 ± 0.021
21,AATTGACG,0.216 ± 0.0043
22,CGGATACA,-0.16 ± 0.057
23,GATTAGGC,-0.0497 ± 0.073
24,ACGATTAC,0.00732 ± 0.051
25,CATGGCCA,-0.157 ± 0.013

row,Sequence,PBM E-score of 8-mer
1,CCAGAGCA,-0.2741 ± 0.0017
2,AGATCCTG,-0.231 ± 0.057
3,CAGTACCA,0.0057 ± 0.0043
4,GTTACGCA,-0.114 ± 0.029
5,CCGCATCA,0.0662 ± 0.035
6,CAGTGGAA,-0.24 ± 0.042
7,ATGACACA,0.327 ± 0.033
8,CTTCCTCA,0.128 ± 0.054
9,AATTGATA,0.149 ± 0.094
10,ATGATCGC,0.115 ± 0.023
11,CCCCTCTC,-0.208 ± 0.05
12,AGCGGGAA,0.125 ± 0.016
13,CGAGACCA,0.0941 ± 0.029
14,CGTCACAA,0.244 ± 0.0062
15,ATTCGTAA,-0.028 ± 0.068
16,ATCATGTA,-0.14 ± 0.042
17,GATACCGC,0.00598 ± 0.069
18,CAGTTAGA,-0.108 ± 0.07
19,GCCTGAGA,0.00683 ± 0.026
20,AAGAACTC,-0.153 ± 0.023
21,ATGTCATG,-0.098 ± 0.02
22,GCAAGCAC,0.00728 ± 0.027
23,TATACACA,0.0585 ± 0.036
24,ATACGCTG,0.0127 ± 0.13
25,TCCTATCA,-0.0124 ± 0.0011

row,Sequence,PBM E-score of 8-mer
1,ATTCTATA,-0.18 ± 0.069
2,CATGGGCG,0.145 ± 0.087
3,CTAAGGTC,-0.126 ± 0.021
4,GGACGAGA,-0.114 ± 0.062
5,CTACAAGC,-0.038 ± 0.033
6,GGTAGCGA,0.222 ± 0.01
7,CTCGTTCC,-0.218 ± 0.11
8,ACAAAATG,0.11 ± 0.04
9,ACGCGCAC,0.203 ± 0.069
10,GAAGAGCA,0.0444 ± 0.043
11,CAAGAGCA,-0.0625 ± 0.015
12,ATCCACCA,-0.0741 ± 0.0042
13,CCACGCAA,-0.0331 ± 0.06
14,CTTGCTTA,0.0844 ± 0.0068
15,TACACCGA,0.118 ± 0.1
16,ATATGCCA,0.00604 ± 0.0092
17,AACCCGGT,-0.128 ± 0.083
18,GAAAAGGC,0.0857 ± 0.012
19,AACACATA,0.345 ± 0.029
20,GTGCCTGA,0.0364 ± 0.073
21,TCAACAAA,-0.0651 ± 0.048
22,ACAACGGT,0.264 ± 0.0062
23,ACACGGTA,0.119 ± 0.027
24,AAACGATG,-0.0331 ± 0.027
25,TAGCTGCA,-0.0804 ± 0.023

row,Sequence,PBM E-score of 8-mer
1,ATATGGGC,-0.205 ± 0.0097
2,CCACCGAC,0.129 ± 0.033
3,AAAGAGAT,0.0332 ± 0.016
4,TACAGATA,-0.0788 ± 0.0015
5,AATCCTGC,-0.0488 ± 0.018
6,AGAATGAA,-0.141 ± 0.0068
7,TAGTTGGA,-0.348 ± 0.045
8,TCGGCTAA,-0.0195 ± 0.038
9,AGACGGTA,-0.218 ± 0.036
10,GCTCAGAC,-0.0633 ± 0.099
11,AACCCGTT,-0.0209 ± 0.077
12,ACTCGAGT,-0.0367 ± 0.092
13,CACCCAGC,0.18 ± 0.0018
14,AGGCAGCC,-0.157 ± 0.006
15,AAAACGGG,-0.158 ± 0.063
16,AATTGGGG,-0.239 ± 0.055
17,GAAGCTCA,0.0158 ± 0.045
18,CGCCTCCC,0.137 ± 0.01
19,CAGAGGGC,-0.212 ± 0.015
20,ACTACAGG,-0.201 ± 0.05
21,ATGACGAA,-0.055 ± 0.0083
22,CTACCAGC,0.0374 ± 0.0074
23,ACTCGGAC,0.0785 ± 0.018
24,AGACTGCC,-0.106 ± 0.0049
25,CACCACCG,0.256 ± 0.016

row,Sequence,PBM E-score of 8-mer
1,ACTAAGCT,-0.161 ± 0.023
2,AGAAGCGG,0.0334 ± 0.076
3,CCGTGGGC,-0.221 ± 0.073
4,AGCCAGTC,-0.0802 ± 0.1
5,AGTTTGAG,-0.151 ± 0.058
6,AGTATGAA,-0.236 ± 0.11
7,GCAGTCGC,0.0192 ± 0.033
8,ATAGGGGA,-0.303 ± 0.056
9,GGCCGTGA,0.205 ± 0.012
10,ATGAGGCA,-0.233 ± 0.013
11,GACGTTGC,0.0625 ± 0.021
12,ATATCATA,0.00487 ± 0.0068
13,ATATGCGC,-0.0304 ± 0.027
14,AGGTACCC,-0.1685 ± 9.2e-05
15,CTTATAGC,-0.0743 ± 0.037
16,CATCCAAC,-0.0729 ± 0.022
17,CATAGTAG,-0.18 ± 0.055
18,CTATGAGC,-0.1 ± 0.02
19,AAGTCCCC,-0.225 ± 0.067
20,AACCCGGG,-0.143 ± 0.14
21,GAGGGTGA,0.268 ± 0.022
22,TAGCTAGA,-0.0623 ± 0.039
23,AAGTACGG,-0.241 ± 0.0081
24,CGGCACCG,0.0205 ± 0.045
25,AATGCCGC,5e-06 ± 0.013

row,Sequence,PBM E-score of 8-mer
1,CACGACTC,0.164 ± 0.033
2,GAACAACC,0.00944 ± 0.031
3,CAATGCTC,-0.229 ± 0.016
4,ATTGTAAG,-0.0959 ± 0.013
5,CAAACTTG,0.0812 ± 0.026
6,ACCCTGAC,0.0521 ± 0.033
7,ATTCGTCA,0.197 ± 0.048
8,GGATCTGA,-0.229 ± 0.034
9,AGTATCTA,-0.211 ± 0.0092
10,CCTTAGGC,-0.0683 ± 0.012
11,AGTGTGCG,0.251 ± 0.017
12,ATGGTGTC,0.392 ± 0.005
13,ACGATTCC,0.108 ± 0.036
14,CAATGGGA,-0.116 ± 0.015
15,ATGGTATC,-0.106 ± 0.066
16,GTTATTGA,0.08 ± 0.058
17,CGCCTAGA,-0.0316 ± 0.023
18,CATAGGCA,-0.259 ± 0.054
19,GGGAAGTA,-0.201 ± 0.049
20,TCCCCGAA,-0.131 ± 0.022
21,GGTCCTAA,-0.195 ± 0.038
22,CCGCTGTA,-0.106 ± 0.0058
23,CGCCCACG,0.0689 ± 0.064
24,CAATCGCA,0.175 ± 0.0096
25,ACGACTCA,-0.0191 ± 0.018

row,Sequence,PBM E-score of 8-mer
1,GTCACTTA,0.288 ± 0.019
2,ATGGGCCG,-0.31 ± 0.017
3,TTAATTAA,-0.0659 ± 0.12
4,GACGCATC,0.133 ± 0.052
5,AAGATTAT,-0.153 ± 0.029
6,CCGGGTCC,0.0397 ± 0.02
7,TAATACAA,-0.139 ± 0.019
8,GATTATTA,-0.163 ± 0.026
9,AATTTAGA,0.0191 ± 0.045
10,GTTGCAGA,-0.0699 ± 0.046
11,TTCTACAA,-0.257 ± 0.005
12,TCCCTTAA,-0.153 ± 0.04
13,TAGGTATA,0.106 ± 0.024
14,AAATATGC,-0.134 ± 0.046
15,GAATGGAC,-0.0456 ± 0.02
16,CCGTATTA,-0.268 ± 0.036
17,AAATCCCA,-0.00587 ± 0.045
18,CCAACCGC,-0.0294 ± 0.1
19,GGTGGCTA,-0.134 ± 0.12
20,TCCGCCCA,0.112 ± 0.038
21,CTTAAATC,-0.214 ± 0.036
22,TCAAGTAA,-0.033 ± 0.016
